Test results from PubChem BioAssay AID886 (National Center for Advancing Translational Sciences (NCATS), 2007).
In all, about 73,000 compounds went through this assay and about 2,500 (3.4%) were called active. The shares of active, inactive and inconclusive entries below differ from those in the screen. Calls follow the shape of the dose curve; as a rule, active = well fitted inhibition curve with a large enough effect; inconclusive = small, poorly fitted or top-dose-only effect; inactive = no such curve, though single readings can be large or run the other way. Where the call is inconclusive, the potency comes from a doubtful curve fit.

The compounds below were run against 3-hydroxyacyl-CoA dehydrogenase type-2 (Homo sapiens) (UniProt Q99714) (assay: qHTS Assay for Inhibitors of HADH2 (Hydroxyacyl-Coenzyme A Dehydrogenase, Type II)). Conditions: recombinant HADH2, NADH fluorescence, beta-hydroxybutyryl-CoA; activity change, negative = inhibition: at 57.1 µM (top of the series).
UniProt Q99714, sequence (Q99714 whole entry, looked up): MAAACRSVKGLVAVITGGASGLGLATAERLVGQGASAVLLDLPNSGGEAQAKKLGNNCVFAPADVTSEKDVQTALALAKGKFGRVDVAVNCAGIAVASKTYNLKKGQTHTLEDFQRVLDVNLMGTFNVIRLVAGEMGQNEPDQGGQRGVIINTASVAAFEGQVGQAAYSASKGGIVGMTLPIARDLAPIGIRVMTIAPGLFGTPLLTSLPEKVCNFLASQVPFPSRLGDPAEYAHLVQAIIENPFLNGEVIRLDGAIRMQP
UniProt Q99714, sequence (Q99714 whole entry, looked up): as above
Summary of the method: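 Buffer 100 mM Tris-HCl pH 9.0/0.01% Tween-20; HADH2 20 nM; NAD+ 1 mM; beta-hydroxybutyryl-CoA 90 uM (all final). 15 min cpd preincubation, RT.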
% is scaled to controls: 0 for no effect and ±100 for the full control effect; potency is read from the fitted curve at half-maximal effect; tags tell the direction and shape of the fitted curve.
Also: nearly all actives have a fitted effect of over 60% in size.

SMILES	activity change, negative = inhibition	Potency
COc1cc(C(=O)NCc2ccc3c(c2)OCO3)ccc1OCc1c(C)noc1C	inactive: 18.4%	
CCOC(=O)N1CCC(N2C(=O)c3ccccc3C2Nc2ccc3c(C)cc(=O)oc3c2)CC1 (stereo unspecified)	inactive: 84.3%	
O=C(CSc1nnc(Nc2ccccc2)s1)NCc1ccco1		inconclusive: 0.126 µM [inhibitor, full curve, poor fit]
COc1ccc2ccccc2c1C1CC(=O)N2CN(C3CCCCC3)CSC2=C1C#N (stereo unspecified)		active: 1.58 µM
COC(=O)c1cc(OC)c(OC)cc1NC(=O)c1c(-c2ccccc2)noc1C		inconclusive: 31.6 µM [inhibitor, single point]
Cc1cc(=O)[nH]c2n[nH]c(-c3ccccc3)c12		inconclusive: 39.8 µM [inhibitor, single point]
NC(=O)c1ccsc1NC(=O)COc1ccccc1		inconclusive: 31.6 µM [inhibitor, single point]
CCOC(=O)c1cnc(-n2nc(C)cc2C)nc1NC(C)c1ccccc1 (stereo unspecified)	inactive: -29.2%	
c1ccc2c(c1)CCCN2c1nc2ccccc2n2cnnc12	inactive: -10.4%	
O=S1(=O)N=C(Nc2ccc(S(=O)(=O)N3CCCCC3)cc2)c2ccccc21		inconclusive: 3.98 µM [inhibitor, single point]
COc1ccc(-c2coc3cc(O)ccc3c2=O)cc1OC		inconclusive: 25.1 µM [inhibitor, single point]
NS(=O)(=O)Cc1noc2ccccc12	inactive: -9.56%	
C=CCn1c(C#N)c(N)sc1=N		inconclusive: 12.6 µM [inhibitor, partial curve]
CCOC(=O)N1CCN(C(=O)c2cnn3c(C)c(Cc4ccc(C)cc4)c(C)nc23)CC1		inconclusive: 39.8 µM [inhibitor, single point]
COc1ccc2[nH]c(=O)c(CN(Cc3ccccc3OC)Cc3nnnn3CC3CCCO3)cc2c1 (stereo unspecified)	inactive: -18.1%	
CCOC(=O)N1CCC(Nc2nc3ccccc3n3nnnc23)CC1		inconclusive: 25.1 µM [inhibitor, single point]
CCOC(=O)c1ccc(-n2c(N)c(C(=O)NCc3ccco3)sc2=S)cc1		active: 3.16 µM
CCCCSCCCNC(=O)Nc1cccc(OC)c1		inconclusive: 3.98 µM [inhibitor, single point]
COc1cccc(-n2nnc3c(=O)n(CC(=O)NCC4CCCO4)cnc32)c1 (stereo unspecified)		inconclusive: 31.6 µM [inhibitor, single point]
Cc1noc(/C=C/N(C)C)c1S(=O)(=O)N1CCC(C(=O)O)CC1		inconclusive: 25.1 µM [inhibitor, single point]
C[C@@H](COc1ccc(/C=C\c2ccccc2)cc1)[N+](C)(C)C		inconclusive: 25.1 µM [inhibitor, single point]
Nc1nc(C2C(=O)CCCC2=O)cs1		inconclusive: 39.8 µM [inhibitor, single point]
CCCn1nnnc1SCC(=O)N(C(C)C)C(C)C		inconclusive: 39.8 µM [inhibitor, single point]
O=c1oc2ccccc2c(O)c1/C=N/c1nc(-c2ccc(O)c(O)c2)cs1		active: 0.199 µM
CC(=O)Oc1cc(OC(C)=O)c2c(=O)cc(-c3ccc(OC(C)=O)c(OC(C)=O)c3)oc2c1		active: 20 µM
Cc1cc(NC(=O)CSCCc2ccncc2)no1		inconclusive: 20 µM [inhibitor, partial curve]

SMILES	activity change, negative = inhibition	Potency
CCCCn1c2c(c3ccccc31)CCc1nonc1-2		active: 25.1 µM
Cc1noc(/C=C/N(C)C)c1S(=O)(=O)N1CCCC(C(=O)NCc2ccc(F)cc2)C1 (stereo unspecified)		inconclusive: 25.1 µM [inhibitor, single point]
CCCCn1c(Cl)nc2c1c(=O)n(C)c(=O)n2C	inactive: -5.2%	
CCOC(=O)c1ccccc1NCN1C(=O)CSC1=O		inconclusive: 31.6 µM [inhibitor, single point]
C=CC(=O)OCCOCCOC(=O)C=C		inconclusive: 31.6 µM [inhibitor, partial curve]
Cc1cc(-c2ccc(Cl)cc2)n2nc(N)nc2n1		active: 31.6 µM
CCn1ncc(Br)c1C(=O)Nc1ccc(Cl)cn1	inactive: -7.61%	
Cc1cccc(-n2ncc3c(N4CCCC4)ncnc32)c1	inactive: 1.69%	
CS(=O)(=O)N(CC(=O)Nc1cccc(F)c1)Cc1ccccc1		inconclusive: 6.31 µM [inhibitor, single point]
CC(C)(c1cc(Br)c(O)c(Br)c1)c1cc(Br)c(O)c(Br)c1		active: 15.8 µM
COc1ccc(-n2nc(C(=O)NCC(=O)NCC3CCCO3)c3ccccc3c2=O)c(OC)c1 (stereo unspecified)	inactive: 3.48%	
CCn1c(CNc2ccc(OC)cc2)nnc1SCC(=O)c1ccc(OC)cc1		inconclusive: 0.794 µM [inhibitor, full curve, poor fit]
CC(=O)Nc1nc(C)c(-c2csc(Nc3ccc(O)cc3)n2)s1		active: 3.98 µM
Cc1cc(C)nc(SCC(=O)c2cc3ccccc3oc2=O)n1		inconclusive: 31.6 µM [inhibitor, single point]
O=c1ccsn1Cc1ccccc1		active: 0.158 µM
Cc1nnc(SCC(=O)Nc2sc3c(c2C#N)CCCC3)[nH]c1=O		inconclusive: 3.98 µM [inhibitor, partial curve]
CSc1nc(N)nc(SCC(=O)c2ccc(C)cc2)c1C#N		inconclusive: 31.6 µM [inhibitor, single point]
O=C1C2=CC[C@H]3C(=O)N(C[C@@H]4CCCO4)C(=O)[C@@H]3[C@@H]2[C@H](O)[C@@H]2O[C@H]12		inconclusive: 3.16 µM [inhibitor, partial curve]
O=C(O)c1[nH]c2ccccc2c1NS(=O)(=O)Cc1ccccc1		active: 31.6 µM
CS(=O)(=O)N1CCCC(C(=O)NCc2ccccn2)C1 (stereo unspecified)	inactive: 7.55%	
COCCNc1cc(C)nc2c3c(C)cc(C)nc3nn12		active: 3.98 µM
N#Cc1nc(Cc2ccccc2)oc1NCCN1CCOCC1	inactive: 0.0548%	
CO	inactive: 4.36%	
COc1cc2[nH]c(=S)n(CC3CCCO3)c(=O)c2cc1OC (stereo unspecified)		inconclusive: 25.1 µM [inhibitor, single point]
Cc1cccn2c(=O)c3cc(C(=O)NC(C)C)c(=N)n(Cc4ccncc4)c3nc12	inactive: 42.2%	
